We go through 45 sequences from the supplement of paper PMC11417369.

± gives the standard deviation of the averaged measurements. The list shows a part of the results.

In the experiment the test system is PfAP2-EXP AP2 domain (GST-tagged). Kind of experiment: gcPBM binding intensity (ln(normalized median fluorescence intensity)); higher = stronger DNA binding. In short, it runs like this:
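GST-fused DNA-binding domains of P. falciparum, expressed in E. coli, were applied at about 25 μg on average for 1 h to an Agilent 4 × 180k array of primer-extended double-stranded 36-bp intergenic genomic probes and negative controls. Binding intensity is the highest Masliner-normalised natural-log median intensity across replicate spots of either probe orientation, measured with Alexa488 anti-GST antibody and a 488 nm scan.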
As for “ATATCATAAATTTATGCATGTTCTTTCTTCAACTCT [TGCATGCA_site992]”, the “gcPBM binding intensity (ln)” value was 8.97 ± 0.49.
Regarding “ATTATTTATTTATTTTTTTTTTTTTTCTCTTTTCCT [GTGCAC_negctrl_site656]”, the “gcPBM binding intensity (ln)” value was 8.43 ± 0.52.
“TTTTTTTTTTCTCTCGCACACATTTTTTAAAATGAG [CACACA_site2607]”: the “gcPBM binding intensity (ln)” value was found to be 8.67 ± 0.4.
Regarding “AGTAGGCATATTGGTTGTACAAAAAAATTATGCACC [XGTACX_site8925]”, the “gcPBM binding intensity (ln)” value is 8.82 ± 0.36.
“GACTCTTAAAAAATTTGTACCCACATAAATAATATA [XGTACX_site4313]”: the “gcPBM binding intensity (ln)” value was 8.57 ± 0.17.
In the case of “ATATATATATATGTTTATTTATTTGAACGATTGTGG [CACACA_negctrl_site828]”, the “gcPBM binding intensity (ln)” value was determined as 9.95 ± 0.38.
As for “ATATTTATATAGATGTGTACATAAATATAATAACAT [XGTACX_site1681]”, the “gcPBM binding intensity (ln)” value stood at 8.86 ± 0.3.
With “ACATATATATATATGTGTACATATTTATACAACAAT [XGTACX_site6660]”, the “gcPBM binding intensity (ln)” value amounted to 8.84 ± 0.24.
With “AAAAATAAAATATATACACACATATATATATATATA [CACACA_site2943]” the figure was 10.2 ± 0.64.
Regarding “TTTTAAATTGGAGTGGGCAGATTGATATTATTCTTC [GTGCAC_negctrl_site191]”, the “gcPBM binding intensity (ln)” value worked out at 8.49 ± 0.61.
With TTTTTAATTTTGTGGGTGCTTTCGTGTTATTATATA the figure was 9.04 ± 0.47.
For the sequence “TATTATAATAAACCTATACACACATAAATAAATAAA [GTGCAC_negctrl_site627]”, the “gcPBM binding intensity (ln)” value amounted to 8.6 ± 0.35.
With “AATGTCAGTATGCGAGGTACACGTATAAAAATTACA [XGTACX_site4109]” the figure was 8.86 ± 0.43; with “AGGAAATTTGTTATTGCACACAAATTTTTCTTTTTT [CACACA_site8732]”, 8.55 ± 0.25; with “TACATAAATTAAAACACACACACACTAGAAAAAAAA [CACACA_site5278]”, 8.81 ± 0.51.
With “TTTTACTAAATATATACACACATTATACAGATATAT [CACACA_site5765]” the figure was 8.44 ± 0.32.
For the sequence “TATATATATATACCAACACACATACATATATATATA [CACACA_site8530]”, the “gcPBM binding intensity (ln)” value turned out to be 10.1 ± 0.13.
“TAAAAAATAAAAATTGCACACTAAAAAATTACGCAC [CACACA_site9129]”: the “gcPBM binding intensity (ln)” value amounted to 8.47 ± 0.23.
On to “AAGTATAAATTAAAATGTACTTATAAAAAAAAAGAA [XGTACX_site7028]”, for which the “gcPBM binding intensity (ln)” value amounted to 8.65 ± 0.44.
With “TGTCACATAATTTATGCACACAATGATTATGCTTAA [CACACA_site2358]” the figure was 8.47 ± 0.26; with “CCATATTTCATTAATGAACACACAAAGAGGTATATA [CACACA_site8431]”, 8.81 ± 0.51.
For the sequence “TATGTATGTATGTATGCATGTGTAACACCTAAATAT [TGCATGCA_site361]”, the “gcPBM binding intensity (ln)” value was found to be 9.01 ± 0.4.
Regarding “ACATATATTGTACATACACACCTATATAAATATCCT [CACACA_site7503]”, the “gcPBM binding intensity (ln)” value came out at 8.82 ± 0.38.
Take “TATAAATATTTTATTGTACACACTTTTTATGAATGA [CACACA_site3136]”: the “gcPBM binding intensity (ln)” value worked out at 8.86 ± 0.46.
For the sequence “TAATATTTCATTAGGTGTACACTACATAGTAGTAGA [XGTACX_site366]”, the “gcPBM binding intensity (ln)” value came to 8.7 ± 0.071.
With “GTTTGTTTGTTTGTTCGTACATATATAAAATAAAAA [XGTACX_site4731]”, the “gcPBM binding intensity (ln)” value was found to be 8.89 ± 0.34.
Turning to “ATTATAACACTTATTTCATTTGTATGCCCTTTAAAA [CACACA_negctrl_site955]”, the “gcPBM binding intensity (ln)” value was determined as 8.78 ± 0.32.
Consider “TATATAACTAAAATAACACACATATATAAAAATATA [CACACA_site7416]”, for which the “gcPBM binding intensity (ln)” value was 8.47 ± 0.33.
For “AGACCTATGATATATACACACATATATTTATTTATA [CACACA_site6630]”, the “gcPBM binding intensity (ln)” value came to 8.52 ± 0.58.
In the case of “TATATATTTTTTAATTGTACACTTCAAAAACAAAAA [XGTACX_site5595]”, the “gcPBM binding intensity (ln)” value was determined as 8.36 ± 0.36.
With “ATAATCAACATTAGGTGTACAAAATATGTATGTTTT [XGTACX_site6696]” the figure was 8.7 ± 0.33; with “AAAAACTTAATATTGACACACATTTTTAAGAATAAT [CACACA_site4291]”, 8.35 ± 0.3.
As to “ATTGAACACATCTATGCATGCACGGAAAAAAGTACA [TGCATGCA_site401]”, the “gcPBM binding intensity (ln)” value is 10.07 ± 0.085.
For the sequence “AGAATAAATAAATATTGTACATATAAAATATATATA [XGTACX_site896]”, the “gcPBM binding intensity (ln)” value worked out at 8.39 ± 0.35.
Turning to “TTCAAATTTCCACATACACACCTTGTAGATATATAT [CACACA_site7984]”, the “gcPBM binding intensity (ln)” value worked out at 8.66 ± 0.49.
For the sequence GTAGTTATATTAAGGGTGCTTAATTAGATTAAACAA, the “gcPBM binding intensity (ln)” value stood at 8.43 ± 0.042.
Regarding “TTTTTTAAAATATGGACACACATATATATATCTGTA [CACACA_site5535]”, the “gcPBM binding intensity (ln)” value came out at 8.39 ± 0.4.
Take “TATGCAATATATTATATTCTGTAAATATTATATATT [TGCATGCA_negctrl_site67]”: the “gcPBM binding intensity (ln)” value was 8.13 ± 0.33.
For the sequence “ACCACCAGGAACAAAGCACATTAGGAAAAATAAAAC [XGTACX_negctrl_site228]”, the “gcPBM binding intensity (ln)” value was 8.82 ± 0.53.
For “TATAAAAAATTAAAATTTTTCTTATTTTTTTTAGAT [TGCATGCA_negctrl_site125]”, the “gcPBM binding intensity (ln)” value came out at 8.22 ± 0.47.
In the case of TACCAATAAATGAAGGTGCGTGCTTGCCTTTGCTAT, the “gcPBM binding intensity (ln)” value was determined as 8.54 ± 0.31.
Consider “CATACATATATTATTGCACACATATAAAATACCCCC [CACACA_site9292]”, for which the “gcPBM binding intensity (ln)” value was 10.2 ± 0.33.
As for “TTGAATAAATTGGAATAAATATAATAAAATAAGGAA [XGTACX_negctrl_site302]”, the “gcPBM binding intensity (ln)” value amounted to 8.62 ± 0.38.
Take “TTGTATAGTCTGATATGTACATATATATATATATAA [XGTACX_site4307]”: the “gcPBM binding intensity (ln)” value stood at 8.7 ± 0.2.
For “TAGGAATTTAATAAATGTACATATACATAATATATA [XGTACX_site3672]” the value was 8.3 ± 0.35.
